Screen size: about 410,000 compounds; about 5,000 (1.2%) were called active. This list was built around the results that the source calls inconclusive (neither active nor inactive); the mix of calls is not that of the screen. The call rests on the fitted dose curve; in most records, active means well fitted inhibition curve with a large enough effect; inconclusive means small, poorly fitted or top-dose-only effect; inactive means no such curve, though single readings can be large or run the other way. Where the call is inconclusive, the potency comes from a doubtful curve fit.
experiment: qHTS for Inhibitors of TGF-b; details: HepG2 CAGA-GFP TGF-b/SMAD3 reporter, GFP fluorescence, 18 h, TGF-beta stimulated, 500 pg/mL final; series mostly up to 46.1 µM; activity, negative = inhibition: at the top concentration; further: nearly all actives have a fitted effect of over 65% in size
Method in brief: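 HEPG2 CAGA-GFP reporter cells (1000/well, DMEM with 1% FBS) received compounds, then recombinant TGF-beta at 500 pg/mL final for 18 hours at 37 degrees C. Per-cell GFP summed per well was normalised to unstimulated and stimulated DMSO controls before curve fitting.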
On the % scale 0 is the no-effect control and ±100 the full control effect; potency means the concentration at half of the fitted maximal effect; tags describe the fitted curve by direction and shape.

Row | SMILES | Potency | activity, negative = inhibition
1 | Cc1ccc(NC(=O)Cn2cc(C(=O)c3ccco3)c3ccccc32)c(C)c1 | inconclusive: 10 µM [inhibitor, partial curve, poor fit] | 
2 | CN(C(=O)CSc1nnc(-c2ccc(OC(F)F)cc2)n1N)C1CCS(=O)(=O)C1 (configuration not stated) |  | inactive: -1.29%
3 | O=C(COC(=O)CNC(=O)c1ccc([N+](=O)[O-])o1)Nc1ncc(C(F)(F)F)cc1Cl | inconclusive: 22.4 µM [inhibitor, single point] | 
4 | O=C(Nc1cccc(Cl)c1)c1cc(S(=O)(=O)N2CCCc3ccccc32)ccc1F | inconclusive: 17.8 µM [inhibitor, single point] | 
5 | Cc1cc(O)cc(O)c1C=NCc1ccco1 | active: 20 µM | 
6 | COC(=O)c1ccc(/C=C2/C(=O)Oc3ccccc32)cc1 | inconclusive: 35.5 µM [inhibitor, partial curve, poor fit] | 
7 | CCN=C1SC(CC(=O)NC(N)=O)C(=O)N1CC (configuration not stated) | inconclusive: 6.31 µM [inhibitor, single point] | 
8 | CCOC(=O)c1[nH]c(C)c(C(=O)OCc2ccccc2F)c1C | inconclusive: 17.8 µM [inhibitor, single point] | 
9 | NS(=O)(=O)c1ccc(NC(=O)CSc2ncnc3ccccc23)cc1 | inconclusive: 22.4 µM [inhibitor, single point] | 
10 | Cc1ncc(CN2CCCC(C(=O)Nc3ccc(-c4cccc(F)c4)cc3)C2)cn1 (configuration not stated) |  | inactive: 0%
11 | Cc1ccc(S(=O)(=O)C(CNC(=O)COc2ccc(Cl)cc2)c2ccco2)cc1 (configuration not stated) | inconclusive: 5.01 µM [inhibitor, partial curve, poor fit] | 
12 | Cc1cccc(Nc2nc(N)nc(CCl)n2)c1C | active: 14.1 µM | 
13 | N#CC1=C(N)C(C#N)(C#N)C(c2ccncc2)C2CN(C(=O)OCc3ccccc3)CC=C12 (configuration not stated) | inconclusive: 15.8 µM [inhibitor, single point] | 
14 | NC(CCc1ccccc1)c1csc(Nc2nncc3ccccc23)n1 (configuration not stated) | inconclusive: 35.5 µM [inhibitor, single point] | 
15 | COc1ccc(-c2nc3ccccc3o2)cc1NC(=O)c1ccc(OCC(C)C)cc1 |  | inactive: -13.2%
16 | O=C(O)c1ccccc1C(=O)Nc1ccc(S(=O)(=O)NC2CCCCC2)cc1 | inconclusive: 2.24 µM [inhibitor, single point] | 
17 | O=C(CCl)Nc1ccc(N=Nc2ccccc2)cc1 | inconclusive: 25.1 µM [inhibitor, single point] | 
18 | CC[C@@]12C(=O)N(c3cccc(F)c3)C(=O)N1[C@H](c1ccc(Cl)cc1)[C@@H]1C(=O)N(C3CCCCC3)C(=O)[C@@H]12 | inconclusive: 11.2 µM [inhibitor, partial curve] | 
19 | CCOc1ccccc1OCCCNCc1ccco1 |  | inactive: 0.45%
20 | COc1ccc(N2CCN(C(=O)c3c4c(nc5ccccc35)C(=O)N(C3CCCCC3)C4)CC2)cc1 | inconclusive: 2.51 µM [inhibitor, partial curve, poor fit] | 
21 | CCC1CSC(Nc2ccc(C(=O)/C=C/c3cccc(C)c3)cc2)=N1 (configuration not stated) | active: 17.8 µM | 

Row | SMILES | Potency | activity, negative = inhibition
22 | CCc1nc2cc([N+](=O)[O-])c([N+](=O)[O-])cc2[nH]1 | inconclusive: 8.91 µM [inhibitor, partial curve] | 
23 | COc1ccc(NC(=O)Nc2nnc(Cc3ccccc3)s2)cc1 |  | inactive: 3.06%
24 | COc1cccc(C(C)(O)c2nc(-c3ccc(Cl)cc3)cs2)c1 (configuration not stated) | inconclusive: 17.8 µM [inhibitor, single point] | 
25 | COc1ccccc1NC(=O)COC(=O)CC(C)(C)CC1=NS(=O)(=O)c2ccccc2N1 | inconclusive: 25.1 µM [inhibitor, single point] | 
26 | COc1ccc2c(CNCc3ccco3)c(C(=O)O)n(Cc3ccccc3)c2c1 |  | inactive: 0.243%
27 | O=C(CN(c1cccc(C(F)(F)F)c1)S(=O)(=O)c1ccccc1)Nc1cccc(Cl)c1 | inconclusive: 22.4 µM [inhibitor, single point] | 
28 | CCOc1ccc(CCNC(=O)CN2C(=O)COc3ccc(S(=O)(=O)N(CC)CC)cc32)cc1 | inconclusive: 14.1 µM [inhibitor, single point] | 
29 | COc1cc(S(=O)(=O)n2ccnc2C(C)C)ccc1Br |  | inactive: -5.26%
30 | COc1ccccc1CNC(=O)C(=O)NCC(c1cccnc1)N1CCN(c2ccc(F)cc2)CC1 (configuration not stated) | inconclusive: 20 µM [inhibitor, single point] | 
31 | O=C(Nc1ccc(Cl)cn1)C1CCN(S(=O)(=O)c2cccs2)CC1 | inconclusive: 3.16 µM [inhibitor, full curve] | 
32 | COC(=O)c1ccc(NC(=O)CN(C)S(=O)(=O)c2ccc(OC)c(C)c2)cc1 | inconclusive: 2.82 µM [inhibitor, partial curve, poor fit] | 
33 | Cc1ccc(NC(=O)CNc2cccc(Br)c2)cc1S(=O)(=O)N1CCOCC1 | inconclusive: 11.2 µM [inhibitor, partial curve, poor fit] | 
34 | CCOC(=O)C(=CNc1ccc(O)c(C(=O)OC)c1)C(=O)OCC |  | inactive: -0.0088%
35 | c1ccc(C2(CN3CCNC[C@@H]3CC3CCCCC3)CC2)cc1 | inconclusive: 25.1 µM [inhibitor, single point] | 
36 | O=C(Nc1ccccc1)Nc1ccc(O)c2ccccc12 | inconclusive: 11.2 µM [inhibitor, partial curve, poor fit] | 
37 | CCn1c(COc2cccc(OC)c2)nnc1SCC(=O)NCC1CCCO1 (configuration not stated) | inconclusive: 35.5 µM [inhibitor, single point] | 
38 | CC(C)(C)S(=O)N1Cc2cc(C(=O)NCc3ccc4c(c3)OCO4)nc(-c3cccc(-c4ccccc4)c3)c2[C@@H]1CCO (some centres not stated) |  | inactive: -15%
39 | Cn1c(C(=O)NCCCN2CCc3ccccc3C2)cc2c(=O)n(C)c3ccccc3c21 |  | inactive: 20.6%
40 | COc1ccc(NC(=O)N2CCN(c3cccc(C(F)(F)F)c3)CC2)cc1OC | inconclusive: 35.5 µM [inhibitor, single point] | 
41 | O=C(NNc1ccc(C2CCCCC2)cc1)C(O)(c1ccccc1)c1cccs1 (configuration not stated) | inconclusive: 35.5 µM [inhibitor, single point] | 
42 | Cc1cccc(Cc2c(C)nc3nc(SCc4cccc(F)c4)nn3c2C)c1 | inconclusive: 35.5 µM [inhibitor, single point] | 

Reference: PubChem BioAssay AID588855 (National Center for Advancing Translational Sciences (NCATS), 2011)
